About 2,300 (1%) of roughly 220,000 compounds were called active. Roughly 6% stayed inconclusive and do not appear here. Calls come from the whole dose curve; as a rule, active = well fitted inhibition curve with a large enough effect; inconclusive = small, poorly fitted or top-dose-only effect, or effect the other way; inactive = no such curve, though single readings can be large or run the other way. The list shows a part of the results, in another mix than the full data. Some structures have more than one record in an assay (separate samples or runs), and their calls can disagree.
What follows are compounds tested against Neuropeptide S receptor (Homo sapiens) (UniProt Q6W5P4) (assay: qHTS Assay for Antagonists of the Neuropeptide S Receptor: cAMP Signal Transduction). Details: CHO-NPSR cells, cAMP TR-FRET, antagonist mode; series mostly up to 38.3 µM; activity change, negative = inhibition: at the top concentration.
Chain of UniProt Q6W5P4 (Q6W5P4 whole entry, looked up): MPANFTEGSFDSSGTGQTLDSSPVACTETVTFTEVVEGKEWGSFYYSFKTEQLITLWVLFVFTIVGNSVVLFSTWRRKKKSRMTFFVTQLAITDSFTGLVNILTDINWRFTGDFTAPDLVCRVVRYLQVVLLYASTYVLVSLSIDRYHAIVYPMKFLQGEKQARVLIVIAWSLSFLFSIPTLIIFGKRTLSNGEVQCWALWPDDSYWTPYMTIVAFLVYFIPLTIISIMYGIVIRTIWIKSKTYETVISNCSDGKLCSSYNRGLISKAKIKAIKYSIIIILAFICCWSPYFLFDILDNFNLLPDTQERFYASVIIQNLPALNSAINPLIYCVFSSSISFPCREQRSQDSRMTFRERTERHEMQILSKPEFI
From the text: NIH Chemical Genomics Center [NCGC] NIH Molecular Libraries Probe Production centers Network [MLPCN] MLPCN Grant: X01-DA026210-01 Assay Submitter (PI): Heilig, Markus Alexander NCGC Assay Overview: Neuropeptide S receptor (NPSR), previously known as GPR154, is a recently de-orphanized G protein coupled receptor. Its endogenous ligand is the 20 amino acids peptide Neuropeptide S (NPS). […] NPS and its receptor are found in various tissues. Specifically they are highly expressed in brain areas that have been implicated in modulation of arousal, stress and anxiety. Central administration of NPS in mice produces an unusual profile of activity by inducing wakefulness and arousal, while at the same time suppressing anxiety. Therefore, NPSR may represent a novel drug target for the treatment of sleep and anxiety disorders. To identify NPSR antagonists, we developed a cell-based cAMP assay. NPS can stimulate the production of cAMP in Chinese hamster ovary cells stably expressing NPS receptor. This change in intracellular cAMP level can be detected by a homogeneous LANCE cAMP assay based on the TR-FRET (time resolved fluorescence resonance energy transfer) between a europium-labeled cAMP tracer complex and a cAMP-specific antibody labeled with Alexa Fluor 647. The europium-labeled cAMP tracer complex is formed by the tight interaction between Biotin-cAMP (b-cAMP) and streptavidin labeled with Europium-W8044 chelate (Eu-SA). Light pulse at 320 nm excites the europium of the cAMP tracer and the energy emitted is transferred to the Alexa molecule bound to the cAMP antibody, generating a TR-FRET signal at 665 nm. Residual energy from the europium will produce a light at 620 nm. The native unlabeled cAMP from cell lysates competes with the europium-cAMP tracer for antibody binding and reversely reduces the emission signal of Alexa by interrupting FRET between the two labeled molecules. Both emission signals from the FRET donor (620 nm) and the acceptor (665 nm) can be detected by a plate reader in the TRF mode. Expression of result in fluorescence ratio (665 nm/620 nm) helps to normalize differences due to cell density and reagent dispensing. This assay was successfully optimized to a 1536-well plate format.
NCGC Assay Protocol Summary: A Chinese hamster ovary (CHO) cell line stably expressing the NPS receptor (CHO-NPSR) was obtained from Dr. Heilig lab at NIAAA and maintained in F-12 Kaighn's media (Invitrogen, Carlsbad, CA, 21127) supplemented with 10 % FBS, 100 units/ml penicillin, 100 ug/ml streptomycin and 250 ug/ml geneticin at 37C, 5% CO2 in a humidified atmosphere. Before the assay, aliquots of cells were frozen and stored at -135C. The assay was performed in 1536-well format. Data are reported for both the ratio of the two emission wavelengths, and also for the component 'donor' channel, Em2=620. Data were normalized to the controls for basal activity (DMSO only) and 100% inhibition (No NPS control). IC50 values were determined from concentration-response data modeled with the standard Hill equation. NPS 1536-well assay protocol: (1) Fresh or frozen CHO-NPSR cells were suspended in F-12 Kaighn's media supplemented with 10 % FBS, 100 units/ml penicillin and 100 ug/ml streptomycin. Cells were plated at 4 ul/well (1200 cells) to white, tissue culture treated 1536-well plates, and then cultured at 37C, 5 % CO2 for 16 to 30 hours. (2) Add 23 nl/well of compound in DMSO solution. The final titration for each compound was between 0.6 nM and 46 uM. (3) Add 1 ul of stimulation reagent (1X HBSS buffer, 5 mM HEPES, 0.1% BSA, 500 uM RO-201724 (Sigma-Aldrich, B8279), 1.5% Alexa 647-labeled anti-cAMP antibody (from Perkin Elmer), 100 nM NPS) (4) Incubation at 37C, 5 % CO2 for 60 min. (5) Add 1 ul/well detection reagent. Detection reagent was prepared by adding biotin labeled cAMP (4%), streptavidin labeled with Europium-W8044 chelate (1.33%) and TritonX-100 (1%) to detection buffer. […]
% is set by controls: 0 for no effect and ±100 for the full control effect; potency is the fitted concentration of half-maximal effect.
Note: nearly all actives have a fitted effect of over 50% in size.

Row | SMILES | activity change, negative = inhibition | Potency
1 | CCO[C@@H]1OC(C(=O)N2CCN(Cc3ccccc3)CC2)=C[C@H](c2cn(C(C)=O)c3ccccc23)[C@H]1CCCO | inactive: 40.9% | 
2 | CCO[C@@H]1OC(C(=O)N2CCN(Cc3ccc4c(c3)OCO4)CC2)=C[C@H](c2cn(C(C)=O)c3ccccc23)[C@H]1CCCO | inactive: 46% | 
3 | CCCNC(=O)NS(=O)(=O)c1ccc(Cl)cc1 | inactive: 5.58% | 
4 | O=C(c1ccc(F)cc1)C1CCN(CCn2c(=O)[nH]c3ccccc3c2=O)CC1 | inactive: -11.4% | 
5 | O=C(C1=C[C@@H](c2ccc(Br)cc2)C[C@@H](OCCCCO)O1)N1CCN(Cc2ccccc2)CC1 | inactive: 45.6% | 
6 | CCN(CC)c1ccc(/C=C2/SC(=O)N(C(C)C)C2=O)o1 | inactive: -43.2% | 
7 | CC(C(O)c1ccc(O)cc1)N1CCC(Cc2ccccc2)CC1 (configuration not stated) |  | inactive
8 | Cc1cc(C)c2c3c(sc2n1)C(c1ccccc1)C(C#N)=C(N)O3 (configuration not stated) |  | active: 10 µM
9 | CN1CCN(C(=O)C2=C[C@@H](c3coc4ccccc4c3=O)C[C@@H](OCc3ccc(CO)cc3)O2)CC1 | inactive: 6.18% | 
10 | Cc1ccsc1/C=C1/SC(N2CCOCC2)=NC1=O | inactive: -15.5% | 
11 | COc1ccc(/C=C2\N=C(c3ccccc3)N(c3ccc(C(=O)O)cc3)C2=O)cc1OC |  | active: 12.6 µM
12 | COc1ccc(CN2C(=O)/C(=C/c3ccc(-c4ccc(Cl)c(C(=O)O)c4)o3)SC2=S)cc1 |  | active: 6.31 µM
13 | CN(C1=C(N2CCCCC2)C(=O)c2ccccc2C1=O)c1ccccc1 |  | active: 12.6 µM
14 | CN(C)CCC(c1ccc(Cl)cc1)c1ccccn1 (configuration not stated) |  | inactive
15 | O=C(NCC1CCCCN1)c1cc(OCC(F)(F)F)ccc1OCC(F)(F)F (configuration not stated) | inactive: -1.48% | 
16 | O=C1/C(=C\c2cccs2)N=C(c2cccs2)N1Nc1ccccc1 | inactive: -3.08% [at 46.1 µM] | 
17 | O=C(O)c1cc(-c2ccco2)nc2ccc(Br)cc12 | inactive: 4.87% [at 46.1 µM] | 
18 | COc1ccc(C2Nc3ccccc3C(=O)N2Cc2ccco2)cc1CN1C(=O)c2ccccc2C1=O (configuration not stated) | inactive: -33.7% | 
19 | C#Cc1ccc([C@@H]2C=C(C(=O)NCc3ccccc3)O[C@H](OCC)[C@H]2CCCO)cc1 | inactive: 1.77% | 
20 | O=C1S/C(=C/c2ccc(N3CCOCC3)o2)C(=O)N1Cc1ccc(F)cc1 | inactive: -18.3% [at 46.1 µM] | 
21 | CO/N=C(\C(=O)N[C@@H]1C(=O)N2C(C(=O)O)=C(COC(C)=O)CS[C@H]12)c1csc(N)n1 (stereo in doubt) | inactive: 42.1% | 
22 | C=CCOC(=O)C1=C[C@@H](c2ccc(C(F)(F)F)cc2)[C@H](CCCO)[C@@H](OCC)O1 | inactive: 42.2% | 
23 | CCN1/C(=C/C(C)=O)Sc2ccc(OC)cc21 | inactive: -22.4% [at 46.1 µM] | 
24 | CC[C@]1(O)C[C@@H]2CN(CCc3c([nH]c4ccccc34)[C@@](C(=O)OC)(c3cc4c(cc3OC)N(C)[C@H]3[C@@](O)(C(=O)OC)[C@H](OC(C)=O)[C@]5(CC)C=CCN6CC[C@]43[C@@H]65)C2)C1 | inactive: 21.5% | 

Row | SMILES | activity change, negative = inhibition | Potency
25 | CCOC(=O)N=Nc1c2ccccc2c2nc3no[nH]c3nc12 |  | active: 6.31 µM
26 | CCO[C@H]1OC(C(=O)Nc2ccccc2)=C[C@@H](c2coc3ccccc3c2=O)[C@@H]1CCCO | inactive: 40.7% | 
27 | O=C(C1=C[C@H](c2ccccc2)C[C@H](OCc2ccc(CO)cc2)O1)N1CCCCCCC1 | inactive: 32.7% | 
28 | COCCOC(=O)C1=C(C)NC(C)=C(C(=O)OC(C)C)C1c1cccc([N+](=O)[O-])c1 (configuration not stated) |  | inactive
29 | CN=C1S/C(=C\c2cn(CC(=O)OC)c3ccccc23)C(=O)N1C | inactive: -23.8% | 
30 | CC(C)C[C@H](NC(=O)[C@H](O)[C@H](N)Cc1ccccc1)C(=O)O | inactive: -0.944% [at 46.1 µM] | 
31 | C(=C\c1ccccc1)/CN1CCN(C(c2ccccc2)c2ccccc2)CC1 | inactive: 24.7% [at 46.1 µM] | 
32 | O=C(C1CCCCC1)N1CC(=O)N2CCc3ccccc3C2C1 (configuration not stated) | inactive: -12.4% | 
33 | O=C(/C=C\c1ccccc1)Oc1cccc2cccnc12 | inactive: -37.1% | 
34 | COc1ccc2c(c1)c(CC(=O)O)c(C)n2C(=O)c1ccc(Cl)cc1 | inactive: -38.7% | 
35 | NC1=NC[C@H](Cc2ccc(O)cc2)N1CCCCC1CCCCC1 | inactive: -50.3% | 
36 | CNC[C@H](O)c1ccc(O)c(O)c1 |  | inactive
37 | COc1ccc(/C=C/C(=O)Nc2ccccc2C(=O)O)cc1OC |  | inactive
38 | CCCc1c(-c2ccc(O)cc2)nn(-c2ccc(O)cc2)c1-c1ccc(O)cc1 | inactive: -44.3% | 
39 | O=C(C1=C[C@@H](c2coc3ccccc3c2=O)C[C@@H](OCc2ccc(CO)cc2)O1)N1CCN(Cc2ccccc2)CC1 | inactive: 50.7% | 
40 | Cc1ccccc1/C=C\c1nc2ccccc2c(=O)[nH]1 | inactive: -50.3% | 
41 | NCCCC(=O)O | inactive: 19.9% | 
42 | Cn1c(=O)c2[nH]c(-c3ccccc3)nc2n(C)c1=O | inactive: 1.49% | 
43 | NC/C=C/C(=O)O | inactive: 1.97% [at 46.1 µM] | 
44 | COc1ccc(NC(=O)/C(Cl)=C(/Cl)S(=O)Cc2ccccc2)cn1 (configuration not stated) |  | active: 1.26 µM
45 | CCO/C([O-])=N/c1c[n+](N2CCOCC2)no1 | inactive: 2.12% | 
46 | COc1ccc(C2C(C#N)C(C#N)N3CCCN23)cc1 (configuration not stated) | inactive: -12.8% [at 46.1 µM] | 
47 | Clc1ccc(Cn2c(CN3CCCC3)nc3ccccc32)cc1 | inactive: -44.6% | 
